According to PMC4336329 (PLoS ONE, 2015):
Hit rate of the full screen: of about 310,000 compounds, about 14,000 (4.5%) showed an effect of 50% or more. The effect is printed as a negative number. This is one part of the list.

target: human ether-à-go-go-related gene (hERG) potassium channel (human, UniProt Q12809); experiment: primary screen, population patch clamp on CHO cells stably expressing hERG
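Further: peak tail current of the secondary pulse compared with the same well before compound.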

Chain of human ether-à-go-go-related gene (hERG) potassium channel (Q12809 whole entry, looked up): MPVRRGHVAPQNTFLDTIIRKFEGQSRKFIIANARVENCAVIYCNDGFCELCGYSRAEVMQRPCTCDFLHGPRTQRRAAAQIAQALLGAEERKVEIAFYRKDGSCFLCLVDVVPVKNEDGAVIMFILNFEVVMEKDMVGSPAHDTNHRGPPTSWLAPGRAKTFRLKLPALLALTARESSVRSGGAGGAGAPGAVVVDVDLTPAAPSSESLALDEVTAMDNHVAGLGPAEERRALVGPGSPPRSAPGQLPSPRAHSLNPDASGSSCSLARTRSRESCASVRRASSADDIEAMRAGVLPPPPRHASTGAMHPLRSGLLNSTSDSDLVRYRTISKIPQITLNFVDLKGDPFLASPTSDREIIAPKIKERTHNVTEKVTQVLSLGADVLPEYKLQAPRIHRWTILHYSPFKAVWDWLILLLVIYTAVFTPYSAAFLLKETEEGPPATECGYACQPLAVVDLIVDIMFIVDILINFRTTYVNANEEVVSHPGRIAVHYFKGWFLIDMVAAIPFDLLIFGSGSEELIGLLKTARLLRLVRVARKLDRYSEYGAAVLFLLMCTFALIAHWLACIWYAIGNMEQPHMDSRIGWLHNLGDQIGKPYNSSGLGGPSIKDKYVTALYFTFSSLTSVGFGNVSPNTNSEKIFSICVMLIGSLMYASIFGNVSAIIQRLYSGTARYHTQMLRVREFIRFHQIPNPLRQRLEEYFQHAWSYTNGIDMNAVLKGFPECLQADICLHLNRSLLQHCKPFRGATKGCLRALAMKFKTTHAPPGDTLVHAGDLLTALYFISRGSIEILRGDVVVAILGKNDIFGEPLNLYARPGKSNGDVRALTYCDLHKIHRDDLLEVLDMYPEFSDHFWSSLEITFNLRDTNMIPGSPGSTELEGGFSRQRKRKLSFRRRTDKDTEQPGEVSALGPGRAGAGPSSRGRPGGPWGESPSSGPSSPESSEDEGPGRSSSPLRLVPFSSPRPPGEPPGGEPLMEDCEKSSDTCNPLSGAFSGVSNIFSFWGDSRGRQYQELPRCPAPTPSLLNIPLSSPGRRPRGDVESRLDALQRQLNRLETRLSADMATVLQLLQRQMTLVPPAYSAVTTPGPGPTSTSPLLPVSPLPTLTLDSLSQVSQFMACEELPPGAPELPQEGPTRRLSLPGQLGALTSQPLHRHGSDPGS

Structure (SMILES) | hERG current change (%, negative = inhibition) at 10uM
CN1/C(=C\C=N\NC(=O)c2ccccc2Br)C(C)(C)c2ccccc21 | -13.9%
Cc1cc(C)c(C#N)c(SCc2ccc([N+](=O)[O-])cc2)n1 | 15.9%
CC(C)(C)OC(=O)N1CCC[C@H]1c1nnc(SCc2ccccc2)o1 | -10.3%
CCn1c(SCC(=O)N2CCOCC2)nnc1C(C)NC(=O)c1ccccc1 (centres unmarked) | 17.7%
CN(C)c1ccc(/C=N/n2c(-c3ccccc3Br)n[nH]c2=S)cc1 | 1%
CC(=O)c1c(C)[nH]c(C(=O)OCc2cccc(C)c2)c1C | 14.4%
CSc1nc(-c2ccccc2)cc(C)c1C#N | -1.51%
CCOC(=O)c1ccc(NC(=O)Cn2nnc3ccccc32)cc1 | 1.73%
CCCC1=NN(C(=O)Cc2ccc(OC)c(OC)c2)C(O)(C(F)(F)F)C1 (centres unmarked) | 0.733%
CCCc1nc2c(sc3nc4c(cc32)COC(C)(C)C4)c(=O)n1CCN(CC)CC | -17.8%
O=S(=O)(c1cccs1)N1CCN(c2ccc(O)cc2)CC1 | -21.8%
COc1cc(/C=N/NC(=O)CCC(=O)Nc2ccc(C)cc2)ccc1O | -10.3%
Br.Cc1ccc(S(=O)(=O)NN2Cc3ccccc3C2=N)cc1 | 7.02%
Cc1ccc2[nH]c(=O)c(C(c3nnnn3CCc3ccccc3)N3CCOCC3)cc2c1 (centres unmarked) | -10.5%
Cn1c(=O)cc(NCCc2ccccc2)[nH]c1=O | -8.48%
CCOC(=O)C1CCCN(C(=O)c2ccc3c(c2)OCO3)C1 (centres unmarked) | 7.81%
CCOc1cccc2cc(C(=O)NC(C)c3ccccc3)c(=N)oc12 (centres unmarked) | -19.6%
CC1=C(C(=O)N2CCCC(N3CCN(c4cccc(Cl)c4)CC3)C2)OCCO1 (centres unmarked) | 17.6%
CCOC(=O)c1ccc(NC(=O)CSc2nnnn2C2CCCCC2)cc1 | 12.9%
COc1ccccc1C1(O)CCN(CC(=O)Nc2nc(-c3ccccc3)cs2)CC1 | -56.8%
COc1ccc(N(CC(=O)N/N=C/c2cccc3c2OCCO3)S(=O)(=O)c2ccc(NC(C)=O)cc2)cc1 | 11.4%
CCCCOc1ccc(C(=O)NCC(=O)N2CCN(C(=O)c3ccco3)CC2)cc1 | -57.4%
Cc1cc(NC(=O)CN2C(=O)N(C)C3(CCCCC3)C2=O)ccc1Br | -9.52%

Structure (SMILES) | hERG current change (%, negative = inhibition) at 10uM
CCOc1ccc(Cc2nc(N)nc(N)n2)cc1 | -4.83%
NC(=O)CN1C(=O)C(O)(CC(=O)/C=C\C=C\c2ccccc2)c2ccccc21 (centres unmarked) | 1%
Cc1ccc(C)c(NC(=O)COC(=O)c2ccc3c(c2)OCCO3)c1 | 11.2%
CCOC(=O)c1c(C)[nH]c(-c2csc(C)n2)c1C | 8.32%
Cc1ccc(NC(=O)c2cc(-c3cc(C)c(C)cc3O)n[nH]2)cc1C | 4.32%
CCCS(=O)(=O)c1nc(S(=O)(=O)c2ccc(C)cc2)c(N2CCC3(CC2)OCCO3)s1 | -37%
CCCC(=O)Nc1c(-c2ccccc2)c(=O)c(C)nn1-c1ccc(C)cc1 | 2.29%
COc1ccc(CNC(=O)C2CCCN(S(=O)(=O)c3c(C)noc3/C=C/N(C)C)C2)cc1 (centres unmarked) | 10.9%
CCCCc1nnc(NC(=O)C(=O)OCC)s1 | 38.2%
COCCNC(=O)c1cccc(OC2CCN(Cc3cccc(C(C)=O)c3)CC2)c1 | 6.74%
Cn1c(CSCCOc2ccccc2)n[nH]c1=S | 10.7%
CN(C(=O)CSc1nncc2ccccc12)C1CCCCC1 | -17.4%
OCC[C@@H]1C[C@@H](O)[C@H](O)[C@@]2(CCCCO2)O1 | 12.8%
c1ccc(-c2nc(NCCCN3CCOCC3)c3ccccc3n2)cc1 | -34.6%
COc1ccc(/C(=C/Nc2cccc(Br)c2)C(C)=O)cc1OC | -12.9%
Cc1noc(N)c1C(=O)Nc1ccc(F)cc1 | 5.37%
O=C(Nc1cccc2ncccc12)c1ccc(Br)c([N+](=O)[O-])c1 | 8.69%
COc1cccc(C(=O)Nc2ncc3c(n2)CC(c2ccc(OC)cc2OC)CC3=O)c1 (centres unmarked) | -17.3%
Nc1cc(=O)[nH]c(SCC(=O)Nc2ccccc2Sc2ccccc2)n1 | 6.15%
CC(Sc1ccccc1)C(=O)N1CCN(S(=O)(=O)c2ccccc2)CC1 (centres unmarked) | -8.83%
O=C(Nc1cnc2ccccc2c1)c1ccncc1 | 2.45%
Cc1sc(NC(=O)C2CCCCC2)c(C#N)c1-c1ccccc1 | 8.24%
COc1cc(C)c(Br)cc1S(=O)(=O)NCCCN1CCOCC1 | 9.66%

Structure (SMILES) | hERG current change (%, negative = inhibition) at 10uM
COc1ccc(N2C(=O)C(Cl)=C(NCc3ccccc3)C2=O)cc1 | -5.74%
COc1ccc(C(=O)c2c(C)c3cc(C)ccc3n2CC(O)CN2CCOCC2)cc1.Cl (centres unmarked) | -32.4%
O=C(Nc1cccc(Cl)c1)Nc1cnccn1 | 29.1%
COc1ccc(CN(C)S(=O)(=O)c2nnc(NC(=O)c3ccccc3OC)s2)cc1OC | 22%
CC(C)(C)NC(=O)CSc1nnc(Cc2ccccc2)n1CC1CCCO1 (centres unmarked) | -2.95%
O=C(CN1C(=O)NC2(CCCCCC2)C1=O)c1ccc(Cl)s1 | 6.1%
CSc1nc(Sc2ccccc2)c2ccccc2n1 | 7.04%
CCCNC(=O)Nc1cc(OCC)c(N2CCOCC2)cc1OCC | -9.65%
COc1cc(CN2CCCC(CCC(=O)NCc3ccc(C)o3)C2)cc2c1OCO2 (centres unmarked) | -59.9%
Cc1oc(-c2ccc(F)cc2)cc1-c1nn2c(-c3ccoc3C)nnc2s1 | 17%
Cc1ccc(NS(=O)(=O)c2cc(C(=O)N3CCOCC3)ccc2C)cc1 | -3.78%
Cc1ccc(SCC(=O)Nc2cccc(-c3nnc(-c4ccco4)o3)c2)cc1 | -2.67%
Cc1ccc(NC(=S)NCc2cccs2)c(C)c1 | 9.56%
N#CCC(=N)N1CCN(c2ccc(Cl)cc2)CC1 | -29%
O=C(c1cccc(F)c1F)N1CCCc2ccccc21 | 8.46%
O=C(Oc1cccc2cccnc12)c1ccco1 | -10.2%
CC1=C(C(=O)N2CCN(C(=O)c3ccco3)CC2)C2(CCC(C)CC2)OC1=O (centres unmarked) | -63.8%
CCCN(CCC)c1ccc(C(O)c2nnc(-c3ccccc3)o2)cc1 (centres unmarked) | -8.96%
CCCCn1c(SCC(=O)N(C)C)nnc1-c1ccncc1 | -2.16%
COc1ccc(Nc2cc3n(c(=O)n2)CCc2cc(OC)c(OC)cc2-3)c(C)c1 | 9.98%
Cn1c(C(=O)NCCN2CCCCCC2)cc2c(=O)n(C)c3ccccc3c21 | -13.4%
COC(=O)c1c(NC(=O)Cn2nc(C(F)F)cc2C(F)F)sc(C)c1C | 14.5%
CC(C)N(Cc1nc(-c2ccccc2)no1)C(=O)CSc1ccccc1 | -1.38%

Structure (SMILES) | hERG current change (%, negative = inhibition) at 10uM
CC(C)CN(C(=O)c1cccc(Cl)c1)c1c(N)n(CC(C)C)c(=O)[nH]c1=O | 11.6%
Cc1cc2c(cc1C)NC(c1cccnc1)C1=C(CC(C)(C)CC1=O)N2 (centres unmarked) | 14.4%
CCOc1ccc(/C=N/NC(=O)c2ccc(F)cc2)cc1CN1CC2CC(C1)c1cccc(=O)n1C2 (centres unmarked) | -53.3%
COc1cc(CNCCO)cc(Br)c1OCc1ccccc1.Cl | -25.4%
CCCCC12CN3CCN(CC(C3)/C1=N\NC(=O)c1ccccc1N)C2 | -70.8%
CCOC(=O)c1cc2c(=O)[nH]ccc2nc1C(F)(F)F | 6.85%
COc1ccc(CCN2C(=NC(=O)C(C)C)SC3CS(=O)(=O)CC32)cc1 (centres unmarked) | -12.4%
O=C(CCc1ccccc1)NNC(=S)NCCc1ccccc1 | 6.95%
COc1ccccc1NC(=O)/C=C/c1ccc(OC)c(S(=O)(=O)N2CCOCC2)c1 | -17.2%
O=C(CC1C(=O)NCCN1Cc1ccc(-c2ccccc2)cc1)NCc1ccccc1 (centres unmarked) | 0.0315%
Cc1nc2scc(C)n2c(=O)c1S(=O)(=O)N1CCN(c2ccc(F)cc2)CC1 | -6.66%
Cc1ccc(S(=O)(=O)N2CCC(C(=O)Nc3ccc4c(c3)COC4=O)CC2)cc1 | 3.99%
CCOC(=O)NC(=O)/C(C=Nc1ccc(Cl)cc1)=C(\C)O | 14.4%
Cc1nc(NCc2cccnc2)c2c3c(sc2n1)CCCC3 | -70.2%
Cc1ccc(C(=O)Nc2ccc(Br)cc2)cc1S(=O)(=O)Nc1ccccn1 | -4.95%
COc1cccc(-c2cc(C(=O)N3CCN(c4ccc(F)cc4)CC3)no2)c1 | 10.9%
O=C(O)c1ccc2c(=O)n3c(nc2c1)/C(=C/c1ccc(Cl)c(Cl)c1)CC3 | 12.1%
COc1ccccc1NC(=O)c1ccc(Br)c(S(=O)(=O)N2CCCC2)c1 | -2.36%
COC1(C)CC2C(CC1OC(=O)c1cc([N+](=O)[O-])cc([N+](=O)[O-])c1)C2(C)C (centres unmarked) | -11.6%
CCOc1ccc(C2C(C(=O)NC)=C(C)Nc3nc4ccccc4n32)cc1OC (centres unmarked) | 11.9%
